# Source: the supplement of paper PMC11417369
# This is one part of the list.
# System: PF3D7_0420300 AP2 domain 1 (GST-tagged)
# Assay: gcPBM binding intensity (ln(normalized median fluorescence intensity)); higher = stronger DNA binding
# Method in brief: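 Binding intensity values are the highest Masliner-normalised natural-log median intensity among replicate spots of either probe orientation. The binding step lasted 1 h in 1× PBS with 1% milk, 0.2 mg/ml BSA, 0.5% salmon testes DNA and 0.03% Triton X-100, using GST-tagged P. falciparum DNA-binding domains expressed in E. coli on an Agilent 4 × 180k array of primer-extended double-stranded 36-bp intergenic genomic probes plus negative controls. Alexa488 anti-GST antibody and a 488 nm scan detected bound protein.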
row,Sequence,gcPBM binding intensity (ln)
1,CTATAATTATGATGAAGTACATATGAGTTCAAAAAA [XGTACX_site3070],9.15
2,ACATAATGCTAGACACGTACGTACATCCGTGAGGTT [XGTACX_site4156],9.38
3,TTATTATTATATTCTACATGCAGTTTGTGTAGAACA [TGCATGCA_site455],9.15
4,TGAACTCAACAAAGGGTGCATAACAAAAATAGACGT,9.7
5,GTAAAAGAACGGCATGCATGAAAAATATTACACATG [TGCATGCA_site143],9.49
6,TATATATGTATATATTTTATAAGTATGCAAGAAAAT [TGCATGCA_negctrl_site486],9.36
7,ATATTGGAATAAATTTGTACATATATATATTATTCA [XGTACX_site916],9.24
8,TGTACGAGTCGTAGAGTGCAGTCTGGAGAAGAGTAC [GTGCAC_site9684],9.23
9,AAAATTTATAAAAGCACACAAAATAAAAAAAAATGA [CACACA_site1491],9.55
10,TTATAATATGTATACACACACATATATAAATATATA [CACACA_site2326],9.51
11,TTTTGTTATATACAATAGATCAGAAGAAATGAAGTT [CACACA_negctrl_site1579],9.27
12,CTTACGTATTAAGTGTGTCCGTAGTGTTCATAGTTC [XGTACX_site8913],9.34
13,CAATGTTAACATATTACACACATATGTATATAGAAT [CACACA_site2732],9.67
14,TATATATCAAGACACACACACATATATTTATTTATA [CACACA_site7733],9.94
15,GATAATTTATTTTTTCGTACACAAAATATAATATAT [XGTACX_site1470],9.17
16,TCGTGAGAAAATATTACACACATTTACTATAGTATC [CACACA_site3444],9.54
17,TTTTTTAAAGATTACTCAAAAAAATAAAAAAATAAA [GTGCAC_negctrl_site222],8.71
18,TTTTTTTTTTTTTTTTGATACATTAACCTACAATGG [GTGCAC_negctrl_site625],8.46
19,TGAGTTCAACAAAGACGTACAAAACCAAAAATATAA [XGTACX_site8931],9.44
20,AAAAAAAAAGAAAAATGTACATACATAAATATATAT [XGTACX_site5664],9.22
21,ATTATAAACCATAATTAACACACAAAATAAGTTACA [CACACA_site9057],9.75
22,AAAAAAAAAAAAAAAAGTACACAAATAGATTTATAT [XGTACX_site3727],9.22

row,Sequence,gcPBM binding intensity (ln)
1,TCCTTTCAACCATATATAATGACATGTACTCAAAAA [GTGCAC_negctrl_site417],9
2,CATCCATATAAAATATGTACATATATATATATATAT [XGTACX_site5859],9.29
3,TATTTTAGTAAAGGTGGTACTTTTAAGTTCATGTAT [XGTACX_site1854],9.17
4,TAAAATAAAAAGTTTACACACATATATAATTTTAAT [CACACA_site662],9.36
5,AACCATTTTAAATATGCACACAGATGCACTAACACA [CACACA_site8565],9.46
6,GAATTATATAATTAAAGTACATTGTTTATATAATCA [XGTACX_site7246],9.05
7,GAAAGAAATAAAGGTGGTACATAAATAAAAACTAAG [XGTACX_site4826],9.36
8,AAATTCCACGGACACACACACATATAAATAAATAAA [CACACA_site4811],9.98
9,TGTAGTCTGGAGAAAAGTACATAGTATCTGGTAGCT [XGTACX_site2031],9.32
10,TTTACACGTACGTGTACACACAAAAATATGTTTTTA [CACACA_site995],9.3
11,ATTTATATGGTTTGCACACATAACAACTATGGTTAT [CACACA_site3632],9.65
12,AACATAAAAAAAATATGTACATATATAATATATATA [XGTACX_site3764],9.29
13,AAAAATAAAAAAAGCACACACATATAAATAAATATA [CACACA_site6968],9.82
14,TAATTTTTCTTTTATTAACACACATATAAATAAATA [CACACA_site8935],9.2
15,CCCAATAATTAAACAACACACATATTTATAGGTAAT [CACACA_site7445],9.7
16,TATATGACAAGATAAAGTACAAATTTGTATATATAT [XGTACX_site3027],9.47
17,ATATATTTATATATTACACACAATATTGTAGACATA [CACACA_site4669],9.51
18,ATATATATACTGTGTACACAAATATATATTATATAT [CACACA_site6104],9.35
19,AAATTTGGATGACTCAATAAATTATAATATATATAT [CACACA_negctrl_site298],9.03
20,ATATTCTTTATATGCATACACACCTAATATAGGGAC [CACACA_site1533],9.4
21,TTCAATTTTTTAAAGCGTACATATAAAAGTTATATG [XGTACX_site731],9.03
22,AATCATTTGTTATAAGTCTAAAATTATTAGAATATT [XGTACX_negctrl_site151],9.05

row,Sequence,gcPBM binding intensity (ln)
1,ATTATTACATATAATGCATGTGCATATATTTTTATA [TGCATGCA_site701],9.28
2,AAAAAAAATTTCTCAAGTACACAATTTTTTTTTGTT [XGTACX_site5874],8.95
3,TTTTTTTAAATATATAAGATAAATTTATAAATAAAT [XGTACX_negctrl_site282],8.63
4,TTATAATAAAAAAATTCCTAAGTCCGTATATATTAT [CACACA_negctrl_site1698],9.02
5,TTTTATTTTTATAACAGTACATAAGTAATTGTTCAA [XGTACX_site7574],8.92
6,TTTTATCATCACATTTGTCAAAAAAAAAAAAAAAAA [CACACA_negctrl_site1296],8.52
7,ATATCAAACTAGAATGTGCGCATGCATTCAAGTTTT,9.07
8,TTATGTTCATTATATGCACACATATATATAAATGTA [CACACA_site8947],9.24
9,GATTTTATAATTTCTACACACATATAAGAATATTCA [CACACA_site2802],9.5
10,ATATATTTATATTTGTGTACATATTTATTATATTTA [XGTACX_site404],9.36
11,ATTTGTGACCACACAAATAAATAAATAAAAAAAAAA [TGCATGCA_negctrl_site328],9.03
12,AATATGAATATCTATACACACACATATATATACACA [CACACA_site8459],9.87
13,TAATAATAGAAACACACACACATTTTTAATAATACA [CACACA_site1216],10.1
14,GGTATACATAATACTTGTACTAGGCAACAATAAGAT [XGTACX_site1437],9.59
15,AAGAAGAAAAACCATTGTACGAACTAACATATATAA [XGTACX_site3226],9.59
16,TGTTAAAAGAAAAAAAGTACAAAAAATTATACATTT [XGTACX_site467],9.17
17,TATATTTTATATTAGTGTACAAATTTCATTTTTCAT [XGTACX_site2204],9.13
18,AATATATATAAAAAAGTGCATTAGGATAACCATATA [GTGCAC_site9590],9.63
19,TATATATATATATTCACACATATAGTATTGTATTTA [CACACA_site5147],9.32
20,TCGCAAATAAATTAATGTACACATATATATATATAT [XGTACX_site5145],9.2
21,TATTGATAATTTTATATATACATACATAAATAAATA [CACACA_negctrl_site1687],8.93
22,TTTTCAATTTTTTATGAACACACAAAAAAAAAAAAA [CACACA_site8808],8.77

row,Sequence,gcPBM binding intensity (ln)
1,AGTTTCTATTTAGTGTGTACTTAAGAAAAATATCTC [XGTACX_site82],9.19
2,AAATGTATATATGTATGTACATATATATATATATAT [XGTACX_site5778],9.16
3,ATAAACTGAGTGGTTACACACAAAACCAATAATTTT [CACACA_site3478],9.61
4,ATATATATATATATATGTACTCATATTTTATTATTT [XGTACX_site898],9
5,TAAAAAAAAACAGAAACACACATTATTCATATAGAT [CACACA_site7052],9.78
6,AAAAGCACCGTTCGTTGTACACTGAAACACTTTTGT [XGTACX_site199],9.28
7,GTTATAAATTTTTTTTTTTTTTTTTTTTTTTTTTTT [CACACA_negctrl_site848],9.27
8,ATAAAATAAAAGGAATGTACTTTTTTTATTGTAATT [XGTACX_site4372],9.14
9,AACAAATACGGACACACACACACACTAGAAAAAAAA [CACACA_site4442],10.2
10,AACAAATTGAAACAATAATTGGAAAAAAAAAAAAAA [CACACA_negctrl_site1145],9.06
11,ACTAATGTAAAAGTTTGTACATATATTGAGAATTAT [XGTACX_site7439],9.2
12,ATTTTTTTCCACTAGTGTACAAATTTTACATTGTGT [XGTACX_site5023],9.47
13,CTATAATATTAGTGCACACACAAAAATGTACTAAAC [CACACA_site6442],9.67
14,AAGAAAAAAACAAAAAAAAAAAAAAAAATTCTTATT [TGCATGCA_negctrl_site504],9.12
15,AATAATAATAAAAATAAACACACATATATATGTATA [CACACA_site8928],9.49
16,ATTTCTTTTGTTATAGTGCATAATATTTATGTACGT,9.31
17,AAAGAAAGAAAGAAAAGTACTTAAACTTTTAAAAAT [XGTACX_site8531],9.19
18,ATATTAATATATAGAAGTACTCACATGTTAATATAA [XGTACX_site7323],9.3
19,TAACTATCATGTATTACACACAATATTTATTATATA [CACACA_site2701],9.52
20,TTAAATAAATAAATAACACACATATAAAAATAACGC [CACACA_site3266],9.67
21,TATTCAAATTTCCACATACACACCTTGTAGATATAT [CACACA_site281],9.35
22,AAGAAAAAAAGCAACACACGTACCAACACAATTATG [CACACA_site3133],9.9
